From paper PMC4922019
Results are given in words; binding and its absence hold for the method and conditions named. Binding seen in cells or lysates may run through a third protein. Some binding calls cover weakened binding; strength is not graded here.

T1: endogenous flot-1 (HEK293) (human (endogenous in HEK293)) (UniProt O75955)
T1 sequence: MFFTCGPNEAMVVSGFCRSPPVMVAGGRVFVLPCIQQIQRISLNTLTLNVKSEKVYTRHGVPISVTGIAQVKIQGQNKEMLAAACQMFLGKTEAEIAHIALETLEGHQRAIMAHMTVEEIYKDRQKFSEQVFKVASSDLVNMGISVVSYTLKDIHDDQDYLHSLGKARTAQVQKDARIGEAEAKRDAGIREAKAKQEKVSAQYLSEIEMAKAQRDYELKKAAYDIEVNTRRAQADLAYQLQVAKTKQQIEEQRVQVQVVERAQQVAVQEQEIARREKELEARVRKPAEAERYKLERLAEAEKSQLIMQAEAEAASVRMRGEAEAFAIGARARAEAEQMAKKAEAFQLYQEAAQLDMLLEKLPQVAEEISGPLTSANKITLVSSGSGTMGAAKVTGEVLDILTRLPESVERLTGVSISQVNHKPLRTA

T2: flotillin-1 (mouse (endogenous in MEF)) (UniProt O08917)
T2 sequence: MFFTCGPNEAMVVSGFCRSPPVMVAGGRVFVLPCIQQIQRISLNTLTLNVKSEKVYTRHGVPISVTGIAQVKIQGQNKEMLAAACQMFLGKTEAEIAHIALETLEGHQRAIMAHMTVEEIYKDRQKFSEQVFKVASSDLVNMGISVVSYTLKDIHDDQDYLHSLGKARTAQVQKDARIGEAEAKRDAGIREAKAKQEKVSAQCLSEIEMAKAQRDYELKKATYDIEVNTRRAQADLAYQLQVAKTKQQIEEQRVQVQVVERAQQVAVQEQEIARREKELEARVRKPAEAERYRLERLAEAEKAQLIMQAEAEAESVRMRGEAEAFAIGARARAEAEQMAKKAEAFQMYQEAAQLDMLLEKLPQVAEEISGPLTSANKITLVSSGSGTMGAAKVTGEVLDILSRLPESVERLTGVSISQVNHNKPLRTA

T3: DJ-1 (mouse (endogenous in MEF)) (UniProt Q99LX0)
T3 sequence: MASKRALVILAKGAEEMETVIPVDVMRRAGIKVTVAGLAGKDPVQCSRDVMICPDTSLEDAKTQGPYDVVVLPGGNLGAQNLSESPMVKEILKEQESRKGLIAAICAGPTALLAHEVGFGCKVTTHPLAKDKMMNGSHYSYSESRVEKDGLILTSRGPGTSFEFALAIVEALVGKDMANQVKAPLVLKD


Tests used:
[1] = molecular target: T1, endogenous flot-1 (HEK293) (human (endogenous in HEK293)); assay: co-IP; HEK293 cells transfected with flag-tagged WT DJ-1 or mutants (M26I, L166P); lysate immunoprecipitated with anti-flot-1 antibody, protein G-agarose, RIPA buffer; Western blot for flot-1 and DJ-1
[2] = molecular target: T2, flotillin-1 (mouse (endogenous in MEF)); assay: co-IP; lysates of WT and DJ-1 KO MEF cells in RIPA buffer; 1 mg supernatant with 1 ug anti-DJ-1 or anti-flot-1 antibody (IgG as negative control) overnight at 4 C, protein G-agarose, washed with ice-cold RIPA buffer; Western blot for DJ-1, flot-1 and cav-1
[3] = molecular target: T2, flotillin-1 (mouse (endogenous in MEF)); assay: proximity ligation; in situ PLA (DuoLink kit) in fixed, permeabilised WT MEF cells with primary antibodies against DJ-1 and flot-1; confocal microscopy
[4] = molecular target: T3, DJ-1 (mouse (endogenous in MEF)); assay: co-IP; lysates of WT and DJ-1 KO MEF cells in RIPA buffer; 1 mg supernatant with 1 ug anti-DJ-1 or anti-flot-1 antibody (IgG as negative control) overnight at 4 C, protein G-agarose, washed with ice-cold RIPA buffer; Western blot for DJ-1, flot-1 and cav-1

binding [1]	Molecule	other results
binds	flag-tagged DJ-1 L166P (from UniProt Q99497 1-189)	
binds	flag-tagged DJ-1 M26I (from UniProt Q99497 1-189)	
binds	flag-tagged WT DJ-1 (from UniProt Q99497 1-189)	
	DJ-1 (protein, UniProt Q99LX0 1-189) MASKRALVILAKGAEEMETVIPVDVMRRAGIKVTVAGLAGKDPVQCSRDVMICPDTSLEDAKTQGPYDVVVLPGGNLGAQNLSESPMVKEILKEQESRKGLIAAICAGPTALLAHEVGFGCKVTTHPLAKDKMMNGSHYSYSESRVEKDGLILTSRGPGTSFEFALAIVEALVGKDMANQVKAPLVLKD	binding [2]: binds; binding [3]: binds
	caveolin-1 (protein, UniProt P49817 1-178) MSGGKYVDSEGHLYTVPIREQGNIYKPNNKAMADEVTEKQVYDAHTKEIDLVNRDPKHLNDDVVKIDFEDVIAEPEGTHSFDGIWKASFTTFTVTKYWFYRLLSTIFGIPMALIWGIYFAILSFLHIWAVVPCIKSFLIEIQCISRVYSIYVHTFCDPLFEAIGKIFSNIRISTQKEI	binding [4]: no binding
